{"source": "PubChem BioAssay AID1671194", "about": "(National Center for Advancing Translational Sciences (NCATS), 2021)", "note": "Out of some 140,000 compounds screened, about 240 (0.17%) were called active. This list was built around the results that the source calls inconclusive (neither active nor inactive); the mix of calls is not that of the screen. Calls follow the shape of the dose curve; as a rule, active = well fitted inhibition curve with a large enough effect; inconclusive = small, poorly fitted or top-dose-only effect; inactive = no such curve, though single readings can be large or run the other way. A potency beside an inconclusive call is a rough fit, not a confirmed value. Potency is read from the fitted curve at half-maximal effect; tags tell the direction and shape of the fitted curve.", "data": [{"test": "Primary qHTS assay for inhibitors of alpha-synuclein gene (SNCA) expression; also: nearly all actives have a fitted effect of over 45% in size;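 as to activity change, negative = inhibition: plate controls were DMSO cells for no effect and cell-free wells for full effect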", "conditions": "HEK-293 SNCA-luciferase knock-in, luminescence, 24 h; activity change, negative = inhibition: at 57.2 µM (top of the series) unless noted", "values": [{"smiles": "O=C(c1cccs1)N1CCC2(CC1)CC(Cc1ccc(F)cc1)CCO2", "note": "(configuration not stated)", "activity change, negative = inhibition": "inactive: 11.3%"}, {"smiles": "CCCNC(=O)CC1Sc2ncccc2N(CCC)C1=O", "note": "(configuration not stated)", "Potency": "inconclusive: 10 µM [inhibitor, partial curve, poor fit]"}, {"smiles": "O=C(NCc1ccccn1)C1CCN(C(=O)c2ncn3c2COC(c2ccc(Cl)cc2)C3)CC1", "note": "(configuration not stated)", "activity change, negative = inhibition": "inactive: 17.4%"}, {"smiles": "CC1CCN(CC2CCCN(C(=O)c3cnccn3)CC2)CC1", "note": "(configuration not stated)", "Potency": "inconclusive: 14.1 µM [inhibitor, single point]"}, {"smiles": "Fc1ccc(OC2CN(Cc3ccccc3)C2)cc1F", "activity change, negative = inhibition": "inactive: 4.78% [at 87.6 µM]"}, {"smiles": "CCCSc1ncc(CN2CCCC(c3nnc(CN(C)C)n3C)C2)cn1", "note": "(configuration not stated)", "Potency": "inconclusive: 39.8 µM [inhibitor, single point]"}, {"smiles": "CCOC(=O)c1cccc(NC(=O)c2ccc3c(c2)N(C)C2CCCCCN2C3=O)c1", "note": "(configuration not stated)", "Potency": "inconclusive: 39.8 µM [inhibitor, single point]"}, {"smiles": "CCOc1ccc(N(C)S(=O)(=O)c2cc(-c3cc(C)no3)ccc2OC)cc1", "Potency": "inconclusive: 31.6 µM [inhibitor, single point]"}, {"smiles": "O=C(NCCc1ccc(F)cc1)C(=O)NCC(c1cccs1)S(=O)(=O)c1ccc(Cl)cc1", "note": "(configuration not stated)", "Potency": "inconclusive: 8.91 µM [inhibitor, partial curve, poor fit]"}, {"smiles": "O=C(NC1CC1)C1CC(=O)N(c2n[nH]c3cccc(F)c23)C1", "note": "(configuration not stated)", "Potency": "inconclusive: 10 µM [inhibitor, partial curve, poor fit]"}, {"smiles": "O=C(Cn1cnnn1)N1CCc2onc(-c3cccc4ccccc34)c2C1", "Potency": "inconclusive: 39.8 µM [inhibitor, single point]"}, {"smiles": "CC(C)CCNC(=O)N1CCC(Oc2ncccc2C(=O)N2CCCCC2)C1", "note": "(configuration not stated)", "Potency": "inconclusive: 6.31 µM [inhibitor, single point]"}, {"smiles": "CC1=C[C@@H](CNC(=O)C2CCCCC2)[C@H](C(C)C)C[C@H]1Cc1nc2c(C)cccc2[nH]1", "Potency": "inconclusive: 35.5 µM [inhibitor, single point]"}, {"smiles": "CSc1ccc(CNC(=O)c2cc3c(N(C)Cc4ccccc4)nc(C)cn3n2)cc1", "activity change, negative = inhibition": "inactive: -2.27%"}, {"smiles": "COc1cccc(CNC(=O)c2cc(-c3ccc(Cl)cc3Cl)nc3c2cnn3C)c1", "Potency": "inconclusive: 39.8 µM [inhibitor, single point]"}, {"smiles": "CCn1c2ccccc2c2cc(CN3CCN(Cc4ccc(Cl)cc4)CC3)ccc21", "Potency": "inconclusive: 5.01 µM [inhibitor, partial curve]"}, {"smiles": "c1cncc(-c2n[nH]c(C3CCCCN3)n2)c1", "note": "(configuration not stated)", "activity change, negative = inhibition": "inactive: -23.8%"}, {"smiles": "Cc1ccc(-n2nc(C)c([C@@H]3C=C[C@@H](NC(=O)CC(C)(C)CC(=O)O)C3)c2C)cc1Cl", "activity change, negative = inhibition": "inactive: 42.7%"}, {"smiles": "Cc1cnc(C)c(N2CCC(COc3cnc4c(ccn4CC(N)=O)c3)CC2)n1", "Potency": "inconclusive: 56.2 µM [inhibitor, single point]"}, {"smiles": "Cc1cc(O)c(C(c2ccccc2)N2CCN(c3ccccc3)CC2)c(=O)n1Cc1ccco1", "note": "(configuration not stated)", "Potency": "inconclusive: 1 µM [inhibitor, full curve, poor fit]"}, {"smiles": "COc1ccc(-c2cn3cc(C(=O)N4CCCC4)nc3c(=O)n2CC2CC2)c(F)c1", "Potency": "inconclusive: 28.2 µM [inhibitor, single point]"}, {"smiles": "Cc1ccccc1OCC(=O)NC1CCN(c2cc(-c3ccccc3)[nH]n2)CC1", "Potency": "inconclusive: 25.1 µM [inhibitor, single point]"}, {"smiles": "O=C(COc1ccccc1)N[C@H]1CO[C@H]2[C@@H]1OC[C@@H]2n1nnnc1-c1ccc2c(c1)OCO2", "Potency": "inconclusive: 39.8 µM [inhibitor, single point]"}, {"smiles": "CCNC(=O)N1CCCC1c1noc(CCC(=O)NCC2CCCCC2)n1", "note": "(configuration not stated)", "Potency": "inconclusive: 28.2 µM [inhibitor, single point]"}, {"smiles": "CCc1ccc(C(=O)CC2(O)C(=O)N(CCc3ccccc3)c3ccc(Cl)cc32)cc1", "note": "(configuration not stated)", "Potency": "inconclusive: 31.6 µM [inhibitor, single point]"}, {"smiles": "c1cnc(N2CC[C@H](c3nnc(-c4ccncc4)o3)C2)nc1", "activity change, negative = inhibition": "inactive: 12.6% [at 87.6 µM]"}, {"smiles": "CCS(=O)(=O)Nc1ccc(C2(C(=O)NC3CCCC3)CCCCC2)cc1", "Potency": "inconclusive: 5.01 µM [inhibitor, full curve, poor fit]"}, {"smiles": "Cc1ccc(-n2ncc(C(=O)NCc3ccco3)c2C2CCN(C(=O)OC(C)(C)C)CC2)cc1", "Potency": "inconclusive: 39.8 µM [inhibitor, single point]"}, {"smiles": "Cc1cc(C)c(Cn2c(=O)n(CCCC(=O)NCc3ccc4c(c3)OCO4)c(=O)c3sccc32)c(C)c1", "Potency": "inconclusive: 7.08 µM [inhibitor, single point]"}, {"smiles": "Cc1ccc(N2C(=S)N[C@H]3[C@@H](O)[C@H](O)C[C@@H](C(=O)NCc4cccs4)[C@H]32)cc1Cl", "Potency": "inconclusive: 10 µM [inhibitor, partial curve, poor fit]"}, {"smiles": "CCc1nn(-c2ccc(OC)cc2)c(Oc2cccc(F)c2)c1CCC(=O)N(CC)CC", "activity change, negative = inhibition": "inactive: 19%"}, {"smiles": "O=C(NCCc1nc(-c2ccccc2)cs1)C1CC(=O)N(c2n[nH]c3ccccc23)C1", "note": "(configuration not stated)", "Potency": "inconclusive: 0.708 µM [inhibitor, full curve, poor fit]"}, {"smiles": "O=C(NCCc1ccc(Cl)cc1)C1CCN(S(=O)(=O)c2ccc3[nH]ccc3c2)CC1", "Potency": "inconclusive: 7.94 µM [inhibitor, partial curve, poor fit]"}, {"smiles": "Fc1ccc2nc([C@H]3CCN(Cc4ccccc4F)C3)[nH]c2c1", "activity change, negative = inhibition": "inactive: 34.3% [at 87.6 µM]"}, {"smiles": "CCN(CCCNC(=O)Cn1ncc2c([nH]c3ccc(C)cc32)c1=O)c1ccccc1", "Potency": "inconclusive: 31.6 µM [inhibitor, partial curve, poor fit]"}, {"smiles": "CC1Cn2c(C(=O)NCc3ccccc3Cl)cc3cccc(c32)S1", "note": "(configuration not stated)", "Potency": "inconclusive: 11.2 µM [inhibitor, partial curve, poor fit]"}, {"smiles": "COc1ccc(Cl)cc1CN(C)C(=O)c1ccc(C2CCCNC2)cc1", "note": "(configuration not stated)", "Potency": "inconclusive: 10 µM [inhibitor, partial curve]"}, {"smiles": "COc1ccc(NC(=O)CCn2cnc3onc(-c4ccc(F)cc4)c3c2=O)cc1OC", "Potency": "inconclusive: 22.4 µM [inhibitor, single point]"}, {"smiles": "CN(C)C(=O)N1CCC(C(=O)N2CCCC2c2nc3ccncc3[nH]2)CC1", "note": "(configuration not stated)", "activity change, negative = inhibition": "inactive: 2.86%"}, {"smiles": "COc1cc(NC(=O)C2CCN(S(=O)(=O)c3c(C)noc3/C=C/c3ccccc3F)CC2)cc(OC)c1OC", "Potency": "inconclusive: 1.78 µM [inhibitor, partial curve, poor fit]"}, {"smiles": "CCCCCN1C(C(=O)c2ccccc2)=C(OC(=O)CC)c2ccccc2S1(=O)=O", "Potency": "inconclusive: 5.62 µM [inhibitor, full curve, poor fit]"}, {"smiles": "FC(F)(F)c1cccc(Nc2c3c(nc4ccc(Cl)cc24)CCC3)c1", "Potency": "inconclusive: 12.6 µM [inhibitor, partial curve, poor fit]"}, {"smiles": "CNC(=O)[C@@H]1C[C@H](n2cc(CNC(=O)c3ccccc3OC)nn2)CN1", "Potency": "inconclusive: 17.8 µM [inhibitor, single point]"}, {"smiles": "O=C1NC(=NC2CCCC2)C2(CCN(Cc3ccc(F)cc3)C2)N1c1cc(F)cc(F)c1", "note": "(configuration not stated)", "Potency": "inconclusive: 7.08 µM [inhibitor, single point]"}, {"smiles": "COc1ccc(CCNC(=O)CCc2c(C)nc3cc(-c4cccc(F)c4)nn3c2C)cc1OC", "Potency": "inconclusive: 2.51 µM [inhibitor, full curve, poor fit]"}, {"smiles": "COc1ccc(-c2noc(CSc3nc4ccccc4[nH]3)n2)cc1OC", "Potency": "inconclusive: 5.01 µM [inhibitor, single point]"}, {"smiles": "COc1ccc(CN[C@H]2[C@H](O)[C@H](O)C[C@@H]2c2ccc(N3CCOCC3)nc2)cn1", "activity change, negative = inhibition": "inactive: 2.1% [at 87.6 µM]"}, {"smiles": "CCCN1CCN(C(=O)c2c(C)sc3ccn(CC(C)C)c(=O)c23)CC1", "Potency": "inconclusive: 6.31 µM [inhibitor, single point]"}, {"smiles": "Cc1noc(C)c1S(=O)(=O)N1CC(N(Cc2cccnc2)CC(C)C)C1", "Potency": "inconclusive: 39.8 µM [inhibitor, single point]"}, {"smiles": "CCN(CC)C(=O)[C@@H](C)C1CC[C@@]2(C)Cc3sc(Nc4c(Cl)cccc4Cl)nc3[C@@H](C)[C@@H]2[C@H]1O", "note": "(some centres not stated)", "Potency": "inconclusive: 8.91 µM [inhibitor, single point]"}, {"smiles": "Cc1ccc2nc(-c3ccccn3)c(Nc3ccccc3C)n2c1", "Potency": "inconclusive: 12.6 µM [inhibitor, partial curve, poor fit]"}, {"smiles": "CCc1cccc2c(C(CC(=O)N3CCC(C)CC3)c3cccc(C)c3)c[nH]c12", "note": "(configuration not stated)", "activity change, negative = inhibition": "inactive: -23%"}, {"smiles": "CC(c1cccs1)N(C)C(=O)C1CC1", "note": "(configuration not stated)", "Potency": "inconclusive: 15.8 µM [inhibitor, single point]"}, {"smiles": "COc1ccc(C(=O)NC2CCN(c3cc(-c4cccs4)[nH]n3)C2)c(OC)c1", "note": "(configuration not stated)", "Potency": "inconclusive: 39.8 µM [inhibitor, single point]"}, {"smiles": "COCCCn1c(C)cc(C(=O)N2CCCC(c3[nH]ccc3C(N)=O)C2)c1C", "note": "(configuration not stated)", "Potency": "inconclusive: 39.8 µM [inhibitor, single point]"}, {"smiles": "COc1cc(C)ccc1OCc1cc(C(=O)N(C)Cc2ncccc2C)no1", "activity change, negative = inhibition": "inactive: -9.39%"}, {"smiles": "CC(C)CN(CC1CN(C(=O)c2cccc(Cl)c2)CCO1)C(=O)c1cccc2ccccc12", "note": "(configuration not stated)", "activity change, negative = inhibition": "inactive: -11.1%"}, {"smiles": "COc1ccc(C(=O)N2CCn3nc(C(O)CS(C)(=O)=O)cc3C2)cn1", "note": "(configuration not stated)", "activity change, negative = inhibition": "inactive: -22.3%"}, {"smiles": "COc1ccc(CN2CCNc3cc(-c4ccnc(C)c4)ncc3C2)cc1O", "activity change, negative = inhibition": "inactive: 120% [at 87.6 µM]"}, {"smiles": "NC(=O)c1ccc2[nH]c(CN3CCC(Oc4ncccn4)CC3)cc(=O)c2c1", "Potency": "inconclusive: 31.6 µM [inhibitor, single point]"}, {"smiles": "CC(C)(C)CC(=O)N1CCC(O)(c2csc(CN3CCc4ccccc4C3)n2)CC1", "Potency": "inconclusive: 56.2 µM [inhibitor, single point]"}, {"smiles": "COc1ccccc1CN[C@H]1CC(C)(C)[C@@H]2C[C@@](C)(O)CC[C@]12CCC(=O)N1CCOCC1", "Potency": "inconclusive: 7.08 µM [inhibitor, full curve, poor fit]"}]}]}
